# Experimental data reported in the supplement of paper PMC8728848.
# The other results are listed elsewhere or left out.
# B1: Siglec 6 (Homo sapiens), O43699 (protein)
# chain: MLPLLLPLLWAGALAQERRFQLEGPESLTVQEGLCVLVPCRLPTTLPASYYGYGYWFLEGADVPVATNDPDEEVQEETRGRFHLLWDPRRKNCSLSIRDARRRDNAAYFFRLKSKWMKYGYTSSKLSVRVMALTHRPNISIPGTLESGHPSNLTCSVPWVCEQGTPPIFSWMSAAPTSLGPRTTQSSVLTITPRPQDHSTNLTCQVTFPGAGVTMERTIQLNVSYAPQKVAISIFQGNSAAFKILQNTSSLPVLEGQALRLLCDADGNPPAHLSWFQGFPALNATPISNTGVLELPQVGSAEEGDFTCRAQHPLGSLQISLSLFVHWKPEGRAGGVLGAVWGASITTLVFLCVCFIFRVKTRRKKAAQPVQNTDDVNPVMVSGSRGHQHQFQTGIVSDHPAEAGPISEDEQELHYAVLHFHKVQPQEPKVTDTEYSEIKIHK
# What was measured:
# Test in all cases: glycan array binding signal (z-score within array); higher = stronger binding
# Conditions in all cases: glycan notation: IUPAC condensed, linker removed
# [1] = biological target: Gal(b1-3)[Neu5Ac(a2-6)]GalNAc
# How it was run: (§1)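 Glycan array binding is given as a within-array Z-score, which can be read as non-binding when negative. The arrays, 3228 of them, came from the Consortium for Functional Glycomics database and were retained only where the protein sequence was available. Z-scores were averaged across arrays of the same protein sequence at different concentrations or buffers and across linkers.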
# [2] = biological target: Gal(b1-3)[Neu5Ac(a2-6)]GlcNAc
# How it was run: as §1
# [3] = biological target: Gal(b1-3)[Neu5Ac(a2-6)]GlcNAc(a1-4)Gal(b1-4)Glc
# How it was run: as §1
# [4] = biological target: Gal(b1-3)[Neu5Ac(b2-6)]GlcNAc
# How it was run: as §1
# [5] = biological target: Gal(b1-4)GalNAc(a1-3)[Fuc(a1-2)]Gal(b1-4)GlcNAc
# How it was run: as §1
# [6] = biological target: Gal(b1-4)GalNAc(b1-3)[Fuc(a1-2)]Gal(b1-4)GlcNAc
# How it was run: as §1
# Gal(b1-4)Glc = biological target: Gal(b1-4)Glc
# How it was run: as §1
# Gal(b1-4)Glc6S = biological target: Gal(b1-4)Glc6S
# How it was run: as §1
# Gal(b1-4)GlcNAc = biological target: Gal(b1-4)GlcNAc
# How it was run: as §1
# [7] = biological target: Gal(b1-4)GlcNAc(b1-2)Man(a1-3)[Gal(b1-4)GlcNAc(b1-2)Man(a1-6)]Man(b1-4)GlcNAc(b1-4)GlcNAc
# How it was run: as §1
# [8] = biological target: Gal(b1-4)GlcNAc(b1-3)Gal(b1-4)Glc
# How it was run: as §1
# [9] = biological target: Gal(b1-4)GlcNAc(b1-3)Gal(b1-4)GlcNAc
# How it was run: as §1
# [10] = biological target: Gal(b1-4)GlcNAc(b1-3)Gal(b1-4)GlcNAc(b1-3)Gal(b1-4)GlcNAc
# How it was run: as §1
# [11] = biological target: Gal(b1-4)GlcNAc(b1-3)Gal(b1-4)[Fuc(a1-3)]GlcNAc(b1-3)Gal(b1-4)[Fuc(a1-3)]GlcNAc
# How it was run: as §1
# [12] = biological target: Gal(b1-4)GlcNAc(b1-3)GalNAc
# How it was run: as §1
# [13] = biological target: Gal(b1-4)GlcNAc(b1-3)[Gal(b1-4)GlcNAc(b1-6)]GalNAc
# How it was run: as §1
# [14] = biological target: Gal(b1-4)GlcNAc(b1-6)GalNAc
# How it was run: as §1
# [15] = biological target: Gal(b1-4)GlcNAc(b1-6)[Gal(b1-3)]GalNAc
# How it was run: as §1
# [16] = biological target: Gal(b1-4)GlcNAc(b1-6)[Gal(b1-3)]GlcNAc
# How it was run: as §1
# Gal3S(b1-3)GalNAc = biological target: Gal3S(b1-3)GalNAc
# How it was run: as §1
# Gal3S(b1-3)GlcNAc = biological target: Gal3S(b1-3)GlcNAc
# How it was run: as §1
# [17] = biological target: Gal3S(b1-3)[Fuc(a1-4)]GlcNAc
# How it was run: as §1
# Gal3S(b1-4)Glc = biological target: Gal3S(b1-4)Glc
# How it was run: as §1
# Gal3S(b1-4)Glc6S = biological target: Gal3S(b1-4)Glc6S
# How it was run: as §1
# Gal3S(b1-4)GlcNAc = biological target: Gal3S(b1-4)GlcNAc
# How it was run: as §1
# Gal3S(b1-4)GlcNAc6S = biological target: Gal3S(b1-4)GlcNAc6S
# How it was run: as §1
# Gal3S6S(b1-4)GlcNAc = biological target: Gal3S6S(b1-4)GlcNAc
# How it was run: as §1
# Gal3S6S(b1-4)GlcNAc6S = biological target: Gal3S6S(b1-4)GlcNAc6S
# How it was run: as §1
# Gal4S(b1-4)GlcNAc = biological target: Gal4S(b1-4)GlcNAc
# How it was run: as §1
# Gal4S6S(b1-4)GlcNAc = biological target: Gal4S6S(b1-4)GlcNAc
# How it was run: as §1
# Gal6S(b1-4)Glc = biological target: Gal6S(b1-4)Glc
# How it was run: as §1
# Gal6S(b1-4)Glc6S = biological target: Gal6S(b1-4)Glc6S
# How it was run: as §1
# Gal6S(b1-4)GlcNAc = biological target: Gal6S(b1-4)GlcNAc
# How it was run: as §1
# GalNAc(a1-3)Gal = biological target: GalNAc(a1-3)Gal
# How it was run: as §1
# GalNAc(a1-3)GalNAc = biological target: GalNAc(a1-3)GalNAc
# How it was run: as §1
# [18] = biological target: GalNAc(b1-3)Gal(a1-4)Gal(b1-4)GlcNAc
# How it was run: as §1
# GalNAc(b1-4)GlcNAc = biological target: GalNAc(b1-4)GlcNAc
# How it was run: as §1
# Glc(a1-4)Glc = biological target: Glc(a1-4)Glc
# How it was run: as §1
# Glc(a1-6)Glc(a1-6)Glc = biological target: Glc(a1-6)Glc(a1-6)Glc
# How it was run: as §1
# Glc(b1-4)Glc = biological target: Glc(b1-4)Glc
# How it was run: as §1
# Glc(b1-6)Glc = biological target: Glc(b1-6)Glc
# How it was run: as §1
# GlcA(b1-3)Gal = biological target: GlcA(b1-3)Gal
# How it was run: as §1
# GlcA(b1-6)Gal = biological target: GlcA(b1-6)Gal
# How it was run: as §1
# [19] = biological target: GlcNAc(a1-3)Gal(b1-4)GlcNAc
# How it was run: as §1
# [20] = biological target: GlcNAc(a1-6)Gal(b1-4)GlcNAc
# How it was run: as §1
# [21] = biological target: GlcNAc(b1-2)Gal(b1-3)GlcNAc
# How it was run: as §1
# [22] = biological target: GlcNAc(b1-2)Man(a1-3)[GlcNAc(b1-2)Man(a1-6)]Man(b1-4)GlcNAc(b1-4)GlcNAc
# How it was run: as §1
# GlcNAc(b1-3)Gal = biological target: GlcNAc(b1-3)Gal
# How it was run: as §1
# [23] = biological target: GlcNAc(b1-3)Gal(b1-3)GalNAc
# How it was run: as §1
# GlcNAc(b1-3)Gal(b1-4)Glc = biological target: GlcNAc(b1-3)Gal(b1-4)Glc
# How it was run: as §1
# [24] = biological target: GlcNAc(b1-3)Gal(b1-4)GlcNAc
# How it was run: as §1
# [25] = biological target: GlcNAc(b1-3)Gal(b1-4)GlcNAc(b1-3)Gal(b1-4)GlcNAc
# How it was run: as §1
# GlcNAc(b1-3)GalNAc = biological target: GlcNAc(b1-3)GalNAc
# How it was run: as §1
# [26] = biological target: GlcNAc(b1-3)[GlcNAc(b1-4)][GlcNAc(b1-6)]GlcNAc
# How it was run: as §1
# [27] = biological target: GlcNAc(b1-3)[GlcNAc(b1-6)]Gal(b1-4)GlcNAc
# How it was run: as §1
# [28] = biological target: GlcNAc(b1-3)[GlcNAc(b1-6)]GlcNAc
# How it was run: as §1
# [29] = biological target: GlcNAc(b1-4)Gal(b1-4)GlcNAc
# How it was run: as §1
# [30] = biological target: GlcNAc(b1-4)GlcNAc(b1-4)GlcNAc
# How it was run: as §1
# [31] = biological target: GlcNAc(b1-4)GlcNAc(b1-4)GlcNAc(b1-4)GlcNAc(b1-4)GlcNAc
# How it was run: as §1
# [32] = biological target: GlcNAc(b1-4)GlcNAc(b1-4)GlcNAc(b1-4)GlcNAc(b1-4)GlcNAc(b1-4)GlcNAc
# How it was run: as §1
# [33] = biological target: GlcNAc(b1-4)[GlcNAc(b1-6)]GalNAc
# How it was run: as §1
# [34] = biological target: GlcNAc(b1-6)Gal(b1-4)GlcNAc
# How it was run: as §1
# GlcNAc(b1-6)GalNAc = biological target: GlcNAc(b1-6)GalNAc
# How it was run: as §1
# Kdn(a2-3)Gal(b1-3)GlcNAc = biological target: Kdn(a2-3)Gal(b1-3)GlcNAc
# How it was run: as §1
binder,measurement,setting,value
B1,glycan array binding signal (z-score),[1],-0.179
same,glycan array binding signal (z-score),[2],-0.381
same,glycan array binding signal (z-score),[3],0.28
same,glycan array binding signal (z-score),[4],-0.37
same,glycan array binding signal (z-score),[5],-0.435
same,glycan array binding signal (z-score),[6],0.697
same,glycan array binding signal (z-score),Gal(b1-4)Glc,-0.373
same,glycan array binding signal (z-score),Gal(b1-4)Glc6S,0.057
same,glycan array binding signal (z-score),Gal(b1-4)GlcNAc,-0.454
same,glycan array binding signal (z-score),[7],-0.29
same,glycan array binding signal (z-score),[8],-0.356
same,glycan array binding signal (z-score),[9],-0.175
same,glycan array binding signal (z-score),[10],-0.516
same,glycan array binding signal (z-score),[11],-0.404
same,glycan array binding signal (z-score),[12],-0.399
same,glycan array binding signal (z-score),[13],0.126
same,glycan array binding signal (z-score),[14],-0.483
same,glycan array binding signal (z-score),[15],-0.521
same,glycan array binding signal (z-score),[16],0.046
same,glycan array binding signal (z-score),Gal3S(b1-3)GalNAc,-0.276
same,glycan array binding signal (z-score),Gal3S(b1-3)GlcNAc,-0.07
same,glycan array binding signal (z-score),[17],-0.217
same,glycan array binding signal (z-score),Gal3S(b1-4)Glc,-0.263
same,glycan array binding signal (z-score),Gal3S(b1-4)Glc6S,1.73
same,glycan array binding signal (z-score),Gal3S(b1-4)GlcNAc,-0.01
same,glycan array binding signal (z-score),Gal3S(b1-4)GlcNAc6S,3.66
same,glycan array binding signal (z-score),Gal3S6S(b1-4)GlcNAc,5.12
same,glycan array binding signal (z-score),Gal3S6S(b1-4)GlcNAc6S,6.44
same,glycan array binding signal (z-score),Gal4S(b1-4)GlcNAc,-0.089
same,glycan array binding signal (z-score),Gal4S6S(b1-4)GlcNAc,3
same,glycan array binding signal (z-score),Gal6S(b1-4)Glc,0.086
same,glycan array binding signal (z-score),Gal6S(b1-4)Glc6S,2.08
same,glycan array binding signal (z-score),Gal6S(b1-4)GlcNAc,-0.197
same,glycan array binding signal (z-score),GalNAc(a1-3)Gal,-0.358
same,glycan array binding signal (z-score),GalNAc(a1-3)GalNAc,-0.219
same,glycan array binding signal (z-score),[18],-0.151
same,glycan array binding signal (z-score),GalNAc(b1-4)GlcNAc,-0.266
same,glycan array binding signal (z-score),Glc(a1-4)Glc,-0.186
same,glycan array binding signal (z-score),Glc(a1-6)Glc(a1-6)Glc,0.114
same,glycan array binding signal (z-score),Glc(b1-4)Glc,-0.282
same,glycan array binding signal (z-score),Glc(b1-6)Glc,-0.081
same,glycan array binding signal (z-score),GlcA(b1-3)Gal,0.376
same,glycan array binding signal (z-score),GlcA(b1-6)Gal,0.211
same,glycan array binding signal (z-score),[19],-0.158
same,glycan array binding signal (z-score),[20],-0.48
same,glycan array binding signal (z-score),[21],1.16
same,glycan array binding signal (z-score),[22],-0.115
same,glycan array binding signal (z-score),GlcNAc(b1-3)Gal,-0.334
same,glycan array binding signal (z-score),[23],-0.324
same,glycan array binding signal (z-score),GlcNAc(b1-3)Gal(b1-4)Glc,-0.515
same,glycan array binding signal (z-score),[24],0.424
same,glycan array binding signal (z-score),[25],-0.441
same,glycan array binding signal (z-score),GlcNAc(b1-3)GalNAc,-0.357
same,glycan array binding signal (z-score),[26],-0.12
same,glycan array binding signal (z-score),[27],-0.362
same,glycan array binding signal (z-score),[28],-0.433
same,glycan array binding signal (z-score),[29],-0.111
same,glycan array binding signal (z-score),[30],-0.378
same,glycan array binding signal (z-score),[31],-0.063
same,glycan array binding signal (z-score),[32],-0.321
same,glycan array binding signal (z-score),[33],-0.382
same,glycan array binding signal (z-score),[34],-0.459
same,glycan array binding signal (z-score),GlcNAc(b1-6)GalNAc,-0.454
same,glycan array binding signal (z-score),Kdn(a2-3)Gal(b1-3)GlcNAc,-0.474
